Assay results taken from the supplement of paper PMC4604168 (melanoma cell lines).
This is one part of the list. Repeats are few or missing, and single values can be far off.

What was measured:
Assay in all cases: cell count relative to DMSO control; melanoma cells; higher = more viable cells
Conditions in all cases: library dose: low library concentration; 72 h
[1] = test system: WM115
[2] = test system: WM1716
[3] = test system: WM1745
[4] = test system: WM3526
[5] = test system: WM3619
[6] = test system: WM451Lu
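Further: cell number obtained by counting DAPI-stained nuclei in high-throughput microscope images with image analysis software, screen run in 1,536-well plates.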

Structure (SMILES): COc1ccc(C2=N[C@@H](c3ccc(Cl)cc3)[C@@H](c3ccc(Cl)cc3)N2C(=O)N2CCNC(=O)C2)c(OC(C)C)c1 [Nutlin-3] + O=C(CCCCCCC(=O)Nc1ccccc1)NO [vorinostat] (first compound 0.1 µM, partner dose 0.08 µM)
- cell count [1]: 99.2%
- cell count [2]: 91%
- cell count [3]: 111%
- cell count [4]: 101%
- cell count [5]: 99.1%
- cell count [6]: 81.1%

Structure (SMILES): COc1ccc(C2=N[C@@H](c3ccc(Cl)cc3)[C@@H](c3ccc(Cl)cc3)N2C(=O)N2CCNC(=O)C2)c(OC(C)C)c1 [Nutlin-3] + Cc1nc(Nc2ncc(C(=O)Nc3c(C)cccc3Cl)s2)cc(N2CCN(CCO)CC2)n1 [dasatanib] (first compound 0.1 µM, partner dose 0.004 µM)
- cell count [1]: 75.3%
- cell count [2]: 85.9%
- cell count [3]: 63.5%
- cell count [4]: 96.1%
- cell count [5]: 82.1%
- cell count [6]: 97.3%

Structure (SMILES): COc1ccc(C2=N[C@@H](c3ccc(Cl)cc3)[C@@H](c3ccc(Cl)cc3)N2C(=O)N2CCNC(=O)C2)c(OC(C)C)c1 [Nutlin-3] + COc1cc(N2CCC(N3CCN(C)CC3)CC2)ccc1Nc1ncc(Cl)c(Nc2ccccc2S(=O)(=O)C(C)C)n1 [NVP-TAE684] (first compound 0.1 µM, partner dose 0.08 µM)
- cell count [1]: 102%
- cell count [2]: 91.2%
- cell count [3]: 81.2%
- cell count [4]: 83.1%
- cell count [5]: 103%
- cell count [6]: 90.4%

Structure (SMILES): Cn1c(=O)n(-c2ccc(C(C)(C)C#N)cc2)c2c3cc(-c4cnc5ccccc5c4)ccc3ncc21 + O=C(Nc1cccc(Cl)c1)Nc1ncc(CCNc2ncnc3ccsc23)s1 [SNS314] (first compound 0.004 µM, partner dose 0.0008 µM)
- cell count [1]: 61.9%
- cell count [2]: 99.2%
- cell count [3]: 86.1%
- cell count [4]: 78.3%
- cell count [5]: 90.5%
- cell count [6]: 84.2%

Structure (SMILES): CC(C)C[C@H](NC(=O)[C@H](Cc1ccccc1)NC(=O)c1cnccn1)B(O)O [Bortezomib] + O=c1cc(-c2cccc3c2Sc2ccccc2S3)oc(N2CCOCC2)c1 [KU55933] (first compound 0.001 µM, partner dose 1 µM)
- cell count [1]: 107%
- cell count [2]: 26.8%
- cell count [3]: 47%
- cell count [4]: 67.3%
- cell count [5]: 22.9%
- cell count [6]: 77%

Structure (SMILES): COc1ccc(C2=N[C@@H](c3ccc(Cl)cc3)[C@@H](c3ccc(Cl)cc3)N2C(=O)N2CCNC(=O)C2)c(OC(C)C)c1 [Nutlin-3] + Nc1ccn([C@@H]2O[C@H](CO)[C@@H](O)C2(F)F)c(=O)n1 [gemcitabine] (first compound 0.1 µM, partner dose 0.0004 µM)
- cell count [1]: 97.9%
- cell count [2]: 99.2%
- cell count [3]: 79%
- cell count [4]: 88.9%
- cell count [5]: 66.3%
- cell count [6]: 111%

Structure (SMILES): Cn1c(=O)n(-c2ccc(C(C)(C)C#N)cc2)c2c3cc(-c4cnc5ccccc5c4)ccc3ncc21 + CN(C)S(=O)(=O)c1ccc2c(c1)/C(=C/c1cc3c([nH]1)CCCC3)C(=O)N2 [SU6656] (first compound 0.004 µM, partner dose 0.4 µM)
- cell count [1]: 77.4%
- cell count [2]: 116%
- cell count [3]: 87.2%
- cell count [4]: 95%
- cell count [5]: 141%
- cell count [6]: 96.4%

Structure (SMILES): CC(C)C[C@H](NC(=O)[C@H](Cc1ccccc1)NC(=O)c1cnccn1)B(O)O [Bortezomib] + O=C(Nc1ccccc1)c1cc([N+](=O)[O-])ccc1Cl [GW9662] (first compound 0.001 µM, partner dose 2 µM)
- cell count [1]: 91.2%
- cell count [2]: 32.7%
- cell count [3]: 58.2%
- cell count [4]: 90.9%
- cell count [5]: 38.8%
- cell count [6]: 122%

Structure (SMILES): Cc1cc(Nc2cc(N3CCN(C)CC3)nc(/C=C/c3ccccc3)n2)n[nH]1 + NCC(=O)Nc1ccc(-n2nc(C(F)(F)F)cc2-c2ccc3c(ccc4ccccc43)c2)cc1 [OSU03012] (first compound 0.04 µM, partner dose 1 µM)
- cell count [1]: 96.7%
- cell count [2]: 106%
- cell count [3]: 105%
- cell count [4]: 73.9%
- cell count [5]: 76.6%
- cell count [6]: 82.5%

Structure (SMILES): CC(C)C[C@H](NC(=O)[C@H](Cc1ccccc1)NC(=O)c1cnccn1)B(O)O [Bortezomib] + COCC[n+]1c2c(n(Cc3cnccn3)c1C)C(=O)c1ccccc1C2=O [YM155] (first compound 0.001 µM, partner dose 0.0004 µM)
- cell count [1]: 91.6%
- cell count [2]: 34.8%
- cell count [3]: 89.6%
- cell count [4]: 87.1%
- cell count [5]: 21.2%
- cell count [6]: 57.6%

Structure (SMILES): COc1ccc(C2=N[C@@H](c3ccc(Cl)cc3)[C@@H](c3ccc(Cl)cc3)N2C(=O)N2CCNC(=O)C2)c(OC(C)C)c1 [Nutlin-3] + Oc1cc(-c2nc(-c3ccccc3)[nH]c2-c2ccncc2)ccc1Cl [L779450] (first compound 0.1 µM, partner dose 0.2 µM)
- cell count [1]: 70.7%
- cell count [2]: 106%
- cell count [3]: 70%
- cell count [4]: 63.9%
- cell count [5]: 91.6%
- cell count [6]: 96.6%

Structure (SMILES): CC(C)C[C@H](NC(=O)[C@H](Cc1ccccc1)NC(=O)c1cnccn1)B(O)O [Bortezomib] + Oc1cc(-c2nc(-c3ccccc3)[nH]c2-c2ccncc2)ccc1Cl [L779450] (first compound 0.001 µM, partner dose 0.2 µM)
- cell count [1]: 73.8%
- cell count [2]: 35.7%
- cell count [3]: 66%
- cell count [4]: 74.7%
- cell count [5]: 19.5%
- cell count [6]: 130%

Structure (SMILES): Cn1c(=O)n(-c2ccc(C(C)(C)C#N)cc2)c2c3cc(-c4cnc5ccccc5c4)ccc3ncc21 + O=C1NC(=O)/C(=C/c2ccc(-c3ccc(F)cc3O)o2)S1 [AS252424] (first compound 0.004 µM, partner dose 1 µM)
- cell count [1]: 98.1%
- cell count [2]: 86%
- cell count [3]: 110%
- cell count [4]: 91.3%
- cell count [5]: 97.7%
- cell count [6]: 115%

Structure (SMILES): Cc1cn(-c2cc(NC(=O)c3ccc(C)c(Nc4nccc(-c5cccnc5)n4)c3)cc(C(F)(F)F)c2)cn1 [nilotinib] + Nc1ccn([C@@H]2O[C@H](CO)[C@@H](O)C2(F)F)c(=O)n1 [gemcitabine] (first compound 0.2 µM, partner dose 0.0004 µM)
- cell count [1]: 111%
- cell count [2]: 97%
- cell count [3]: 86.5%
- cell count [4]: 89.8%
- cell count [5]: 95.9%
- cell count [6]: 101%

Structure (SMILES): CC(C)C[C@H](NC(=O)[C@H](Cc1ccccc1)NC(=O)c1cnccn1)B(O)O [Bortezomib] + CNC(=O)c1cc(Oc2ccc(NC(=O)Nc3ccc(Cl)c(C(F)(F)F)c3)cc2)ccn1 [sorafenib] (first compound 0.001 µM, partner dose 0.4 µM)
- cell count [1]: 95.4%
- cell count [2]: 20.9%
- cell count [3]: 44.8%
- cell count [4]: 78.3%
- cell count [5]: 17.9%
- cell count [6]: 82%

Structure (SMILES): Cn1c(=O)n(-c2ccc(C(C)(C)C#N)cc2)c2c3cc(-c4cnc5ccccc5c4)ccc3ncc21 + COc1ccc(Cl)c(Nc2nc3ccccc3nc2NS(=O)(=O)c2cccc(NC(=O)C(C)(C)N)c2)c1 [XL147] (first compound 0.004 µM, partner dose 0.8 µM)
- cell count [1]: 105%
- cell count [2]: 76.2%
- cell count [3]: 87.8%
- cell count [4]: 97.3%
- cell count [5]: 96.8%
- cell count [6]: 97.7%

Structure (SMILES): Cc1cc(Nc2cc(N3CCN(C)CC3)nc(/C=C/c3ccccc3)n2)n[nH]1 + O=C(O)C(=O)Nc1sc2c(c1C(=O)O)CCNC2 [TCS401] (first compound 0.04 µM, partner dose 1.66667 µM)
- cell count [1]: 98%
- cell count [2]: 118%
- cell count [3]: 87.2%
- cell count [4]: 82.3%
- cell count [5]: 85%
- cell count [6]: 83.8%

Structure (SMILES): Cn1c(=O)n(-c2ccc(C(C)(C)C#N)cc2)c2c3cc(-c4cnc5ccccc5c4)ccc3ncc21 + Cn1cncc1[C@@](N)(c1ccc(Cl)cc1)c1ccc2c(c1)c(-c1cccc(Cl)c1)cc(=O)n2C [tipifarnib] (first compound 0.004 µM, partner dose 0.01 µM)
- cell count [1]: 79.3%
- cell count [2]: 66.7%
- cell count [3]: 84.5%
- cell count [4]: 85.7%
- cell count [5]: 81.6%
- cell count [6]: 81.3%

Structure (SMILES): Cn1c(=O)n(-c2ccc(C(C)(C)C#N)cc2)c2c3cc(-c4cnc5ccccc5c4)ccc3ncc21 + CC1(C)NC(=O)N(c2ccc([N+](=O)[O-])c(C(F)(F)F)c2)C1=O [nilutamide] (first compound 0.004 µM, partner dose 1 µM)
- cell count [1]: 83.4%
- cell count [2]: 72.7%
- cell count [3]: 88.7%
- cell count [4]: 94.3%
- cell count [5]: 95.7%
- cell count [6]: 85.5%

Structure (SMILES): CC(C)C[C@H](NC(=O)[C@H](Cc1ccccc1)NC(=O)c1cnccn1)B(O)O [Bortezomib] + Cc1cc(N2CCOCC2)cc2[nH]c(-c3c(NC[C@@H](O)c4cccc(Cl)c4)cc[nH]c3=O)nc12 [BMS536924] (first compound 0.001 µM, partner dose 0.2 µM)
- cell count [1]: 110%
- cell count [2]: 44.3%
- cell count [3]: 47.3%
- cell count [4]: 88.6%
- cell count [5]: 14.6%
- cell count [6]: 76.5%

Structure (SMILES): CC(C)C[C@H](NC(=O)[C@H](Cc1ccccc1)NC(=O)c1cnccn1)B(O)O [Bortezomib] + OCc1c[nH]c2ccccc12 [Indole-3-carbinol] (first compound 0.001 µM, partner dose 0.8 µM)
- cell count [1]: 106%
- cell count [2]: 28%
- cell count [3]: 85.8%
- cell count [4]: 96%
- cell count [5]: 28%
- cell count [6]: 71.9%

Structure (SMILES): Cc1cn(-c2cc(NC(=O)c3ccc(C)c(Nc4nccc(-c5cccnc5)n4)c3)cc(C(F)(F)F)c2)cn1 [nilotinib] + COC(=O)c1sccc1S(=O)(=O)Nc1ccc(Nc2ccccc2)cc1OC [GSK0660] (first compound 0.2 µM, partner dose 1 µM)
- cell count [1]: 97.7%
- cell count [2]: 85.2%
- cell count [3]: 91.3%
- cell count [4]: 94.1%
- cell count [5]: 93.6%
- cell count [6]: 133%

Structure (SMILES): Cc1cc(Nc2cc(N3CCN(C)CC3)nc(/C=C/c3ccccc3)n2)n[nH]1 + Nc1cccc2c1CN(C1CCC(=O)NC1=O)C2=O [lenalidomide] (first compound 0.04 µM, partner dose 1 µM)
- cell count [1]: 92.2%
- cell count [2]: 98.1%
- cell count [3]: 97.6%
- cell count [4]: 92.8%
- cell count [5]: 88.1%
- cell count [6]: 99.7%

Structure (SMILES): Cc1cc(Nc2cc(N3CCN(C)CC3)nc(/C=C/c3ccccc3)n2)n[nH]1 + COCC[n+]1c2c(n(Cc3cnccn3)c1C)C(=O)c1ccccc1C2=O [YM155] (first compound 0.04 µM, partner dose 0.0004 µM)
- cell count [1]: 93.7%
- cell count [2]: 89.9%
- cell count [3]: 87.1%
- cell count [4]: 98.1%
- cell count [5]: 105%
- cell count [6]: 80.5%

Structure (SMILES): COc1ccc(C2=N[C@@H](c3ccc(Cl)cc3)[C@@H](c3ccc(Cl)cc3)N2C(=O)N2CCNC(=O)C2)c(OC(C)C)c1 [Nutlin-3] + Oc1nc(-c2ccc(C(F)(F)F)cc2)nc2c1CSCC2 [XAV939] (first compound 0.1 µM, partner dose 2 µM)
- cell count [1]: 85.2%
- cell count [2]: 65.4%
- cell count [3]: 87.4%
- cell count [4]: 102%
- cell count [5]: 64.4%
- cell count [6]: 106%
